Targets include D(3) dopamine receptor (Homo sapiens, UniProt P35462); D(1B) dopamine receptor (Homo sapiens, UniProt P21918); D(4) dopamine receptor (Homo sapiens, UniProt P21917); Histamine H3 receptor (Homo sapiens, UniProt Q9Y5N1); Vasopressin V1a receptor (Homo sapiens, UniProt P37288); Mu-type opioid receptor (Homo sapiens, UniProt P35372); Substance-P receptor (Homo sapiens, UniProt P25103); Substance-K receptor (Homo sapiens, UniProt P21452).

The target of assay [1] is T1, D(1A) dopamine receptor (Homo sapiens, UniProt P21728).
T1 sequence (P21728 whole entry): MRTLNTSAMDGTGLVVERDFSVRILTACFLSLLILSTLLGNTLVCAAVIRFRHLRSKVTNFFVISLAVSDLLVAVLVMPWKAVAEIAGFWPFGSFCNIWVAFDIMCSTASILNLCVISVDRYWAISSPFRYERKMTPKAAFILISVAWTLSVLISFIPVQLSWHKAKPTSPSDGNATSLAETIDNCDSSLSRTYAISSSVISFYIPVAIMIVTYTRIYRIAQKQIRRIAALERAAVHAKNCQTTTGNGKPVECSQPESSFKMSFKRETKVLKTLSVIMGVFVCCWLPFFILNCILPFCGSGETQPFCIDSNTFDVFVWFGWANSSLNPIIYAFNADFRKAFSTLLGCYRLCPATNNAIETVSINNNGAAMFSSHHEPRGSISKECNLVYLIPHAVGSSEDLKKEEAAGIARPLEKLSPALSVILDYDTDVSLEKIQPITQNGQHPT
The target in assay [2] is 5-hydroxytryptamine receptor 3A (Homo sapiens, UniProt P46098). It is filed as functional.
5-hydroxytryptamine receptor 3A, sequence (P46098 whole entry): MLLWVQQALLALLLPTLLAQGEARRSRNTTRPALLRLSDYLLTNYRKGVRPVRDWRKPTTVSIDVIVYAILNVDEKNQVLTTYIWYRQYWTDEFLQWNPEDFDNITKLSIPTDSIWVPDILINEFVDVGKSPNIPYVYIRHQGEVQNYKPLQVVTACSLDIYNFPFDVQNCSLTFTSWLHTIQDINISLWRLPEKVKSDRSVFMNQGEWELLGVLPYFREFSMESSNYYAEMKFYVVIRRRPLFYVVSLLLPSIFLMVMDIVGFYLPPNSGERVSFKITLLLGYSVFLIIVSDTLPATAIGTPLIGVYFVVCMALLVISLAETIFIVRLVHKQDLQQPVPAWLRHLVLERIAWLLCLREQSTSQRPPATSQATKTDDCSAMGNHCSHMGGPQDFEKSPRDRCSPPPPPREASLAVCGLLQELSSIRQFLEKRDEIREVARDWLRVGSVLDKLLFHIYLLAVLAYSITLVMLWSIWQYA
The target in assay [3] is Rod cGMP-specific 3',5'-cyclic phosphodiesterase subunit alpha (Homo sapiens, UniProt P16499). It is filed as functional.
Rod cGMP-specific 3',5'-cyclic phosphodiesterase subunit alpha, sequence (P16499 whole entry): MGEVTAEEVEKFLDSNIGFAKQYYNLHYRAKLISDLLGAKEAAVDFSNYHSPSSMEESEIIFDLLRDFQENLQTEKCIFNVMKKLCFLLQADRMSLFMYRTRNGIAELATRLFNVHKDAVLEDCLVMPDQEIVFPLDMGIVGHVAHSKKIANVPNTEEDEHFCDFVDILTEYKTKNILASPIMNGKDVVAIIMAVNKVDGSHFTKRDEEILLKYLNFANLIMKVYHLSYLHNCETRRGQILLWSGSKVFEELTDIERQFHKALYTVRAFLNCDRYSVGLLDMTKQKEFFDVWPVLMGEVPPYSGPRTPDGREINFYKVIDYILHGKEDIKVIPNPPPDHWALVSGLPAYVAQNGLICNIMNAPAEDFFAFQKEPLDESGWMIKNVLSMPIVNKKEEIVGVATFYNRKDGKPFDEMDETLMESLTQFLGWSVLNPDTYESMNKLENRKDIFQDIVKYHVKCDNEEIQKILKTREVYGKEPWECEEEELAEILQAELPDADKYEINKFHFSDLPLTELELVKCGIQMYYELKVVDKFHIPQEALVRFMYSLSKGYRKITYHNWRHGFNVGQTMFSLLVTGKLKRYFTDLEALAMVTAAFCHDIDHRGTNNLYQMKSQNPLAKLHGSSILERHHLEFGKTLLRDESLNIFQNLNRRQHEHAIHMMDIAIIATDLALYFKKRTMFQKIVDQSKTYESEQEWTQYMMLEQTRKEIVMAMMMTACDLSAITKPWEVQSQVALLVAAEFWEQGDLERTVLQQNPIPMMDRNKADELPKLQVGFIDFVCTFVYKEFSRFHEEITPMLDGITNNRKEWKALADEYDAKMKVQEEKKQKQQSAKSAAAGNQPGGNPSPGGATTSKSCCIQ
Assay [4] addresses 5-hydroxytryptamine receptor 7 (Homo sapiens, UniProt P34969).
Assay [5] deals with T2, Gamma-aminobutyric acid receptor subunit alpha-1 (Rattus norvegicus, UniProt P62813).
T2 sequence (P62813 whole entry): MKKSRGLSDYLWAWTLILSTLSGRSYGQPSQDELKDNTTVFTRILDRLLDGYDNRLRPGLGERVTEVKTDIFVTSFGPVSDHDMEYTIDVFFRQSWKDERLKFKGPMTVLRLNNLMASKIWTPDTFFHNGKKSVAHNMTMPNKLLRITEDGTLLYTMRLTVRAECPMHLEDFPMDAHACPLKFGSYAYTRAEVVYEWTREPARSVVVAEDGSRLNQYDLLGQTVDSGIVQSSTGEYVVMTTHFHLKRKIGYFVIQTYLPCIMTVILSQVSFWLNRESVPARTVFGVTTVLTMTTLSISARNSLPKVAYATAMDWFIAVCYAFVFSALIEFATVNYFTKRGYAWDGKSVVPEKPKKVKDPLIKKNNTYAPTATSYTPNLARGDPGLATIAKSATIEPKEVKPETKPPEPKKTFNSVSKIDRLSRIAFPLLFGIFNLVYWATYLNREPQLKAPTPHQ
Assay [6] has as its target Muscarinic acetylcholine receptor M5 (Homo sapiens, UniProt P08912).
For assay [7], the target named is T1, D(1A) dopamine receptor. The assay is classed as functional, cell-based.
For assay [8], the target named is 5-hydroxytryptamine receptor 5A (Homo sapiens, UniProt P47898).
Assay [9] concerns the target Muscarinic acetylcholine receptor M4 (Homo sapiens, UniProt P08173).
For assay [10], the target named is Gamma-aminobutyric acid type B receptor subunit 1 (Homo sapiens, UniProt Q9UBS5).
Assay [11] concerns the target Amine oxidase [flavin-containing] A (Homo sapiens, UniProt P21397). The assay is classed as functional.
The target of assay [12] is T2, Gamma-aminobutyric acid receptor subunit alpha-1. It is filed as functional.
In assay [13] the target is Glutamate receptor ionotropic, NMDA 1 (Rattus norvegicus, UniProt P35439).
For assay [14], the target named is Voltage-dependent L-type calcium channel subunit alpha-1C (Rattus norvegicus, UniProt P22002). The assay is classed as functional.
The target in assay [15] is Delta-type opioid receptor (Homo sapiens, UniProt P41143).
Assay [16] addresses Neuronal acetylcholine receptor subunit alpha-4 (Homo sapiens, UniProt P43681).
In assay [17] the target is Voltage-dependent N-type calcium channel subunit alpha-1B (Rattus norvegicus, UniProt Q02294). The assay is classed as functional.
Assay [18] addresses Sodium-dependent serotonin transporter (Homo sapiens, UniProt P31645).
Assay [19] addresses T3, Alpha-1A adrenergic receptor (Homo sapiens, UniProt P35348).
T3 sequence (P35348 whole entry): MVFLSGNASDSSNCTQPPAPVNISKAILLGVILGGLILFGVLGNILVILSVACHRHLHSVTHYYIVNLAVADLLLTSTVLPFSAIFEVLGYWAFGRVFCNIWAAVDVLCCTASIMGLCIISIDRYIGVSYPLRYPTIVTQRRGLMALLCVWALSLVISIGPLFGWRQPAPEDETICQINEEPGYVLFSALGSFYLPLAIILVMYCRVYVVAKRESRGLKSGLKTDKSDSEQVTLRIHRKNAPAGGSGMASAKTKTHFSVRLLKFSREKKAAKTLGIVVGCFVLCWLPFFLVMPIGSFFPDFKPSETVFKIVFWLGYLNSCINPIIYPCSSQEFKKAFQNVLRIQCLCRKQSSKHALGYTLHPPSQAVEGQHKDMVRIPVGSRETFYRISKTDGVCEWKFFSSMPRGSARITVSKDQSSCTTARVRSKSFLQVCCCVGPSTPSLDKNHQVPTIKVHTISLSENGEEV
The assay is classed as functional, cell-based.

The target in assay [20] is cGMP-inhibited 3',5'-cyclic phosphodiesterase 3A (Homo sapiens, UniProt Q14432). The assay is classed as functional.
Assay [21] deals with Equilibrative nucleoside transporter 1 (Homo sapiens, UniProt Q99808).
Assay [22] addresses Sodium-dependent noradrenaline transporter (Homo sapiens, UniProt P23975).
Assay [23] deals with Voltage-gated inwardly rectifying potassium channel KCNH2 (Homo sapiens, UniProt Q12809). The assay is classed as functional.
Assay [24] deals with T3, Alpha-1A adrenergic receptor. It is filed as functional, cell-based. This is another data set of the same source.
Assay [25] has the same target.
Assay [26] addresses Sodium-dependent dopamine transporter (Homo sapiens, UniProt Q01959).
In assay [27] the target is 5-hydroxytryptamine receptor 2C (Homo sapiens, UniProt P28335).
Assay [28] addresses 3',5'-cyclic-AMP phosphodiesterase 4D (Homo sapiens, UniProt Q08499). The assay is classed as functional.
For assay [29], the target named is Synaptic vesicular amine transporter (Rattus norvegicus, UniProt Q01827). The assay is classed as functional.
The next assay has as its target Bile salt export pump (Homo sapiens, UniProt O95342). The assay is classed as functional.

Where only a bound is given, the exact number is not on record here.
Note: assay procedure not described here.

D(3) dopamine receptor, sequence (P35462 whole entry): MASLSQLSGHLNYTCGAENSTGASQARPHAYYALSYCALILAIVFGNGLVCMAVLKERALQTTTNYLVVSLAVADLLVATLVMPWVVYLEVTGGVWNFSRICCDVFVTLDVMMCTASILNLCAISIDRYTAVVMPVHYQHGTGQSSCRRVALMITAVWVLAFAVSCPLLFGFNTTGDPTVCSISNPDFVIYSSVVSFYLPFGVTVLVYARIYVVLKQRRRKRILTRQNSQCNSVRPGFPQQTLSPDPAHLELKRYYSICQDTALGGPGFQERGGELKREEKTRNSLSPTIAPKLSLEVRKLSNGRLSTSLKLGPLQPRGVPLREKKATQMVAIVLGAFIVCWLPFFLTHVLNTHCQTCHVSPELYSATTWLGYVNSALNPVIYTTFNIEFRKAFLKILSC
D(4) dopamine receptor, sequence (P21917 whole entry): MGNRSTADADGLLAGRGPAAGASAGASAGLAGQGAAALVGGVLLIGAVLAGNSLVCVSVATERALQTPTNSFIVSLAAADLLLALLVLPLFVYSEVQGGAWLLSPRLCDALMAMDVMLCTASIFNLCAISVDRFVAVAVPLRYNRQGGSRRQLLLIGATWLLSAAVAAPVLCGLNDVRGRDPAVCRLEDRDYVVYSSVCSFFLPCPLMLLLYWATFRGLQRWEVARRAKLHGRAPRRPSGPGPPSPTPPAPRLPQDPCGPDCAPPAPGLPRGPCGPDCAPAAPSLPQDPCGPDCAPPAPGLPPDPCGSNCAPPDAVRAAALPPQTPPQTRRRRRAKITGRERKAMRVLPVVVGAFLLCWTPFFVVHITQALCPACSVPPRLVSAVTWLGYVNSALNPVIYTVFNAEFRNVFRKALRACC
Bile salt export pump, sequence (O95342 whole entry): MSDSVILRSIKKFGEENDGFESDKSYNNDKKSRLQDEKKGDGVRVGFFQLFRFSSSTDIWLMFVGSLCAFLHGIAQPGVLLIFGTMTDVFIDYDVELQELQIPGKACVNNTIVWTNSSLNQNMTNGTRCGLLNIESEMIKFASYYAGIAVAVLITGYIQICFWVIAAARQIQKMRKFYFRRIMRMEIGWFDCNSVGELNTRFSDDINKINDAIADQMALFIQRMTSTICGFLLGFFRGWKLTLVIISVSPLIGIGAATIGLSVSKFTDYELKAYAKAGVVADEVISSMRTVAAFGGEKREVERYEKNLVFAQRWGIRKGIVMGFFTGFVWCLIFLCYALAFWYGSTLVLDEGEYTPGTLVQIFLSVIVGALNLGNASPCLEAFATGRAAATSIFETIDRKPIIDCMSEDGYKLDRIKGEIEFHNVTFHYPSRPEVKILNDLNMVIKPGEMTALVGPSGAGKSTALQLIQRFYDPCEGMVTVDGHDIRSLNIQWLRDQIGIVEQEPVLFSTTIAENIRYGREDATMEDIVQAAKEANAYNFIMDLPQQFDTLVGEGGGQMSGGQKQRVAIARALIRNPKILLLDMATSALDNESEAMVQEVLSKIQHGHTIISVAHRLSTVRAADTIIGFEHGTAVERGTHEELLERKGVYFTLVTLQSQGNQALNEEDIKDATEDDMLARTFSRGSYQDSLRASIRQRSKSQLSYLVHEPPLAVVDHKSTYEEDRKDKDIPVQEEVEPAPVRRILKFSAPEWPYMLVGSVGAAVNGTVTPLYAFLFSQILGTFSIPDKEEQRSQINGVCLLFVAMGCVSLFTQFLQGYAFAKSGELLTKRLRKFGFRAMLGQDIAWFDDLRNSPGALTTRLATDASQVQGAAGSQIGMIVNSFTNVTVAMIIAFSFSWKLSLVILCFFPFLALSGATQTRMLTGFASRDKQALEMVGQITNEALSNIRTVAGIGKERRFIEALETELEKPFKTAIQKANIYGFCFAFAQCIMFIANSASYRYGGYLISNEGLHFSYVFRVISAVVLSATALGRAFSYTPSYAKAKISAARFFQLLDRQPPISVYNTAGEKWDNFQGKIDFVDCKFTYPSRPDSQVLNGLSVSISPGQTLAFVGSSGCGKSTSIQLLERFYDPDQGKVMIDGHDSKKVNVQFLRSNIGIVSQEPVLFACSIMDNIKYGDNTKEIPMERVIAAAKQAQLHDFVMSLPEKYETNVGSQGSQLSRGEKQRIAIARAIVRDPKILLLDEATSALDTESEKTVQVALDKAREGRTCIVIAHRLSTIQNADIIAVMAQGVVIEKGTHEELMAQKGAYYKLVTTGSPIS
5-hydroxytryptamine receptor 7, sequence (P34969 whole entry): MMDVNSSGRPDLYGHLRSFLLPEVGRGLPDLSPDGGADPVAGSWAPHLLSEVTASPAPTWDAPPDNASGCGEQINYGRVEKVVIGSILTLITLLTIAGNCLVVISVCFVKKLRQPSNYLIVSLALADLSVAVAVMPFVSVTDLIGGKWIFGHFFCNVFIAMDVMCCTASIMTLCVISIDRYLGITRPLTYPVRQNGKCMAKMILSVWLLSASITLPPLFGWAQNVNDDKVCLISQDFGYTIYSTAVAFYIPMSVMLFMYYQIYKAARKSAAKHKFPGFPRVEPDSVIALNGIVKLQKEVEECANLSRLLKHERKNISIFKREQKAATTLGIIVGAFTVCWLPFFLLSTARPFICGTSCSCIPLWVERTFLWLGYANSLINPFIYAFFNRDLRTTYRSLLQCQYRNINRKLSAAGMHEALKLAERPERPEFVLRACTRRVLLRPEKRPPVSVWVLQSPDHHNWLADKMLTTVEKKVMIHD

As a reminder, the AC50 is the concentration at which the activity in the assay is half-maximal. For `O=c1[nH]c2ccccc2n1CCCN1CCC(n2c(=O)[nH]c3cc(Cl)ccc32)CC1` [DOMPERIDONE], at D(3) dopamine receptor, the AC50 was determined as 0.024 µM.
As for `CNCCC(Oc1ccc(C(F)(F)F)cc1)c1ccccc1` (stereo unspecified) [FLUOXETINE], the AC50 on D(1A) dopamine receptor [1] is 8.58 µM; at D(1B) dopamine receptor, more than 10 µM; in [2], more than 10 µM; in assay [3], more than 10 µM; at D(4) dopamine receptor it was more than 10 µM; in [4], more than 10 µM. The AC50 is more than 10 µM in [5]; 5.25 µM in [6]; more than 10 µM on Histamine H3 receptor; 2.3 µM on D(1A) dopamine receptor [7]; more than 10 µM on Vasopressin V1a receptor; 14 µM on Mu-type opioid receptor. Further, the AC50 (in assay [8]; on D(3) dopamine receptor; in assay [9]; in [10]; in assay [11]; in [12]) was more than 10 µM throughout. Also, the AC50 in [13] was more than 10 µM; in assay [14], 4.67 µM; in assay [15] it was more than 10 µM; in assay [16] it was more than 10 µM; on Substance-P receptor, more than 10 µM; at Substance-K receptor, more than 10 µM. Moreover, the AC50 in [17] is more than 10 µM.
Turning to `CCOC(=O)C1(c2ccccc2)CCN(C)CC1` [MEPERIDINE], the AC50 was 1.9 µM in assay [18]; more than 30 µM in assay [2]; more than 30 µM in [19]; more than 30 µM in assay [20]; more than 30 µM in assay [21]; more than 30 µM in assay [22]. Also, the half-maximal activity concentration (AC50) in assay [23] is 28.7 µM; in assay [24], 7.8 µM; in [25] it was 2.56 µM; in assay [26] it was more than 30 µM; in assay [27], more than 30 µM; on D(3) dopamine receptor it was more than 30 µM. In assay [28], this compound registered an AC50 of more than 30 µM.
For `Cc1nc2n(c(=O)c1CCN1CCC(c3noc4cc(F)ccc34)CC1)CCCC2` [RISPERIDONE], the figures for the AC50 (in [29]; on Bile salt export pump) were 0.318 µM and 140 µM, respectively.

For the origin of these results see ChEMBL document CHEMBL5291721, “A preclinical secondary pharmacology resource illuminates target-adverse drug reaction associations of marketed drugs” (Nat Commun, 2023).
